Results on 92 compounds are retold here after PMC4336329 (PLoS ONE, 2015).

Among all 310,000 compounds or so, about 2,200 (0.71%) showed an effect of 50% or more. The effect is printed as a negative number. The list shows a part of the results.

Chain of human ether-à-go-go-related gene (hERG) potassium channel (Q12809 whole entry, looked up): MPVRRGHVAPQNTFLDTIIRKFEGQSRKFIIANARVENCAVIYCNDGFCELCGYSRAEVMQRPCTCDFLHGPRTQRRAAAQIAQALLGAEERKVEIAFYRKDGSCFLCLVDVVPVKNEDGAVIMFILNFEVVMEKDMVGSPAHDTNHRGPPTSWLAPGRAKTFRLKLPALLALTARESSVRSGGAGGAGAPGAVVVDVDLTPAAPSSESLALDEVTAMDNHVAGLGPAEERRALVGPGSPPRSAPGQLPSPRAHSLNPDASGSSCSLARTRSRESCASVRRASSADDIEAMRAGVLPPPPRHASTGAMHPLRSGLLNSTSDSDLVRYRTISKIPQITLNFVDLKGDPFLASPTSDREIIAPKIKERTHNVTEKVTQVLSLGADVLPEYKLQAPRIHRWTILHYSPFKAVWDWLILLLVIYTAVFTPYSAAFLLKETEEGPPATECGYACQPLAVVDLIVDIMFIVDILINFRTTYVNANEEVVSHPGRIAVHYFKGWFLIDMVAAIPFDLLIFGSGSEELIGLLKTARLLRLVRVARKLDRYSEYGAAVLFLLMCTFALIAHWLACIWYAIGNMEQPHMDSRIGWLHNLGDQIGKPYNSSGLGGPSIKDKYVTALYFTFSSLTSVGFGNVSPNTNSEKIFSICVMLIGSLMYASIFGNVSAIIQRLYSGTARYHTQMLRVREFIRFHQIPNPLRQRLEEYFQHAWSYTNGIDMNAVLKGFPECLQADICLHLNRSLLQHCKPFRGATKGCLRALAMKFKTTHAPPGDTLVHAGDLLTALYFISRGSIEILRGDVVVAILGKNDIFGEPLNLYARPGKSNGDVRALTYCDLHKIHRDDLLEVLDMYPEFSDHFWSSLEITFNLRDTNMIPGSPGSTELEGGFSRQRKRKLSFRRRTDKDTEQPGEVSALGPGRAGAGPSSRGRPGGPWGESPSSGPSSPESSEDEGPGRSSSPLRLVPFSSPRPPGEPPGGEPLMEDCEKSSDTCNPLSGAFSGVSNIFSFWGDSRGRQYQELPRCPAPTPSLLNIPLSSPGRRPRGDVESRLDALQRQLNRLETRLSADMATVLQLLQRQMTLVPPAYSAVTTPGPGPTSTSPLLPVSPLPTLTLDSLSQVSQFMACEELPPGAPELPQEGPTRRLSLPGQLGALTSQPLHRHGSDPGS

This experiment has as its target human ether-à-go-go-related gene (hERG) potassium channel (human, UniProt Q12809). Kind of experiment: primary screen, population patch clamp on CHO cells stably expressing hERG.
Take `Cc1ccc(/C=C/C(=O)NCCCc2ccccc2)cc1`: the “hERG current change (%, negative = inhibition) at 1uM” value is 7.56%.
The same measure for `Cc1cc(C)n2cc(CSc3ncccc3C(=O)O)nc2n1`: 11%; for `CCCCN(CC(=O)NCc1ccc(Cl)cc1)S(=O)(=O)c1ccc2c(c1)OCCO2`: 12.2%; for `Cc1cccc(NC(=S)NNc2cccc(Cl)c2)c1`: 8.26%.
In the case of `Cc1ccc(NC(=O)COC(=O)c2cccnc2Cl)cc1S(=O)(=O)N1CCCCC1`, the “hERG current change (%, negative = inhibition) at 1uM” value is on record as 5.74%.
Under `Cl.Nc1ccc2nc(C(F)(F)F)[nH]c2c1` stands 14.8%.
The same measure for `Cc1ccc[n+](CC(=O)c2ccc(NC(=O)c3ccccc3)cc2)c1C`: 12.6%; for `COc1ccc(NC(=O)C2CC(=O)N/C(=N/N=C/c3ccco3)S2)cc1` (centres unmarked): 12.6%.
The same measure for `CN(C)CCN(Cc1cc2cc3c(cc2nc1Cl)OCO3)C(=O)c1ccco1`: 26.3%; for `CSc1ccc(C2(O)Cc3cccc[n+]3C2c2ccccc2)cc1.[Br-]` (centres unmarked): 10.5%; for `O=C(CSc1nnnn1-c1ccccc1)Nc1ncc2c(n1)CC(c1ccco1)CC2=O` (centres unmarked): -0.182%.
Turning to `Cc1cc(OCC(=O)N2CCCCCC2)ccc1[N+](=O)[O-]`, the “hERG current change (%, negative = inhibition) at 1uM” value is 9.44%.
The same measure for `Cc1ccc(-n2nc3c(=O)n(C(C)C(=O)NCc4ccc(Cl)cc4)nc(C)c3c2C)cc1` (centres unmarked): -19%; for `COc1ccc(S(N)(=O)=O)cc1C(=O)OCCCC(=O)c1ccccc1`: 9.67%.
Under `CCN(CC)CCNC(=O)c1ccc(NC(=O)c2cn(-c3ccc(F)cc3)nc2-c2cccc(OC)c2)cc1` stands -8.82%; under `O=c1[nH]c(-c2ccccn2)nc(C(F)(F)F)c1Br`, 9.06%; under `CCO[C@H]1OC(C(=O)Nc2ccccc2)=C[C@@H](c2coc3ccccc3c2=O)[C@@H]1CCCO`, 5.79%.
Under `CC(C)(C)OC(=O)NCCc1n[nH]c(=S)o1` stands 14.7%; under `O=C(c1ccc(OCC2CCCO2)cc1)N1CCN(c2ccccc2)CC1` (centres unmarked), 9.25%.
Consider `COCc1cc(C)nc(N2CCNCC2)c1C#N`, for which the “hERG current change (%, negative = inhibition) at 1uM” value is 11.7%.
As to `O=C(Nc1ccc(OCC(=O)N2CCOCC2)cc1)Nc1cccc(Cl)c1`, the “hERG current change (%, negative = inhibition) at 1uM” value was found to be 7.47%.
Under `COC(=O)CNc1nc(-c2ccccc2F)nc2ccccc12` stands 5.2%; under `CC(=O)Nc1ccc(C(=O)CSc2nnnn2C(C)C)cc1`, 1.27%; under `CC(c1ccccc1)n1cnc2ccccc2c1=O` (centres unmarked), 16.1%.
The same measure for `Cn1nc(C(F)(F)F)c(C(=O)Nc2ccc(Cl)cc2)c1Cl`: -3.91%; for `CCOCCCNC(=O)C(NC(=O)Cc1cccs1)c1ccccc1` (centres unmarked): 5.99%.
The same measure for `COc1ccc(-c2coc3c(CN4CCOCC4)c(O)ccc3c2=O)cc1`: 0.432%; for `CCCCN(c1ccc(C(=O)OC)cc1)S(=O)(=O)c1ccccc1`: 6.44%; for `Cc1cc(NCCc2ccccc2F)n2ncnc2n1`: 18.5%.
Turning to `COC(=O)c1cccc(Nc2nc(-c3cccnc3)nc3ccccc23)c1`, the “hERG current change (%, negative = inhibition) at 1uM” value amounted to 8.44%.
The same measure for `COc1ccc(C(=O)NNc2cc(C)nc(NNC(=O)c3ccc(OC)cc3)n2)cc1`: 10%.
For the compound `Nc1ccc(Cl)cc1C(=O)OCC(=O)NC1CCS(=O)(=O)C1` (centres unmarked), the “hERG current change (%, negative = inhibition) at 1uM” value was 15.7%.
Under `CC1(C)CC(c2nc(-c3ccc(Cl)cc3)cs2)CCS1.Cl` (centres unmarked) stands 13.9%; under `CCOC(=O)Nc1ccccc1C(=O)N1CCOCC1`, 15.1%; under `CCCOc1c(Br)cc(C(=O)OCC(=O)NC2CC2)cc1OC`, 8.83%.
Under `Cc1cc(C)cc(N2CC(C(=O)OCC(=O)Nc3cc(C)on3)CC2=O)c1` (centres unmarked) stands 20.3%; under `CC(C)(C)SCCNC(=O)CN1C(=O)c2ccccc2S1(=O)=O`, 3.97%.
With `COc1ccc(C(CNC(=O)c2ccc(S(=O)(=O)N(C)C)cc2)N2CCCCC2)cc1` (centres unmarked), the “hERG current change (%, negative = inhibition) at 1uM” value is recorded as 0.868%.
The same measure for `Cc1ccc(Oc2nc3ccccn3c(=O)c2/C=C(\C#N)C(=O)NC2CCS(=O)(=O)C2)c(C)c1` (centres unmarked): 18%; for `COc1cccc(COC(=O)C2CC(=O)N(Cc3ccco3)C2)c1OC` (centres unmarked): 10.6%.
Turning to `CC(NC(=O)C(=O)N1CCOCC1)C(c1cccs1)N1CCN(c2ccccc2F)CC1` (centres unmarked), the “hERG current change (%, negative = inhibition) at 1uM” value is reported as 3.31%.
The same measure for `CC(C)c1onc(C(=O)N2C(C)CCCC2C)c1[N+](=O)[O-]` (centres unmarked): 21.3%; for `CN(C)C(=O)c1nnc(Cc2ccc(Cl)cc2)o1`: 12%.
Under `O=C(Nc1c2c(nn1-c1ccccc1)CS(=O)(=O)C2)c1ccc2c(c1)OCO2` stands 11.2%; under `Nn1c(SCC(=O)NC(=O)NC2CCCC2)nnc1-c1ccccc1F`, 6.95%; under `N#Cc1c(C(F)(F)F)cc(-c2ccccc2)n(N)c1=O`, 17.1%.
Under `Cc1cccc(N2CCN(C(=O)c3ccccn3)CC2C)c1` (centres unmarked) stands 12.4%; under `O=C1C2CCCN2C(c2cccnc2)N1c1nccs1` (centres unmarked), 9.96%.
With `COc1ccc(CC(=O)NCCC2=CCCCC2)cc1`, the “hERG current change (%, negative = inhibition) at 1uM” value stood at 17.4%.
Under `C=CCSc1ncccc1C(=O)NCc1ccc(C)cc1` stands -9.03%; under `Cc1ccc(C(NC(N)=O)c2ccccc2C)cc1` (centres unmarked), 8.15%.
Under `COc1ccc(NC(=O)N2CCOCC2)cc1OC` stands 15.8%; under `COc1ccccc1-n1nnnc1SCC(=O)NC1CCCC1`, 10.6%; under `CSc1nnc(-c2ccc(S(=O)(=O)N3CCCC3)cc2)n1C`, -2.03%.
The same measure for `COc1ccc(NC(=O)C2CCCN(S(=O)(=O)c3c(C)n[nH]c3C)C2)cc1` (centres unmarked): 4.3%; for `COc1cc2nc(-c3cccs3)oc(=O)c2cc1OC`: 11.8%; for `Cc1cccc(-n2nnc(C(=O)NCc3ccc4c(c3)OCO4)c2N)c1`: 17.2%.
Consider `Cc1ccc(C(=O)COC(=O)CCN2C(=O)C3C4CCC(C4)C3C2=O)cc1[N+](=O)[O-]` (centres unmarked), for which the “hERG current change (%, negative = inhibition) at 1uM” value worked out at 3.52%.
The same measure for `O=C1/C(=N\S(=O)(=O)c2cccs2)C([n+]2ccccc2)=C([O-])c2ccccc21`: 31.7%; for `O=C(COc1ccc(Br)cc1)N1CCN(c2ccc([N+](=O)[O-])c(N3CCCCC3)c2)CC1`: 3.94%; for `Sc1oc(-c2ccccc2)cc1C=Nc1ccccc1`: -6.53%.
Under `CCOc1ccccc1OCCCCN1CCCC1` stands -14.2%; under `CCOc1ccc(NCc2ccccc2OCc2cccc(F)c2)cc1.Cl`, 3.42%; under `CCOCC(=O)Nc1nnc(C2CCCCC2)s1`, 12.6%.
The same measure for `O=S(=O)(c1ccc(NCCc2c[nH]c3ccccc23)nc1)N1CCOCC1`: 11.4%; for `CC(=O)c1cc(CN2CCC(C(=O)Nc3cccc(-c4cscn4)c3)CC2)cs1`: 1.73%.
As for `NC(=O)CC12CC3CC(C1)CC(CC(N)=O)(C3)C2`, the “hERG current change (%, negative = inhibition) at 1uM” value was 18.4%.
The same measure for `COc1ccc(-c2cc(C(=O)N3CCOCC3)c3ccccc3n2)cc1OC`: 0.37%; for `CC(=O)Nc1cccc(S(N)(=O)=O)c1C`: 6.26%.
The same measure for `COc1ccc2cc(C(=O)NCCCN3CCCC3=O)[nH]c2c1`: 13.9%.
Under `CC(C)Oc1ccc(CSC(=N)N)cc1.Cl` stands 2.31%; under `CCOC(=O)[C@H]1[C@H]2COc3ccc(Br)cc3[C@@H]2N2C(=O)c3ccc(F)cc3NC(=O)[C@@]12C`, 4.07%; under `Cc1cc(C)n2nc(SCC(=O)N/N=C/c3ccc(F)cc3)nc2n1`, 5.53%.
Turning to `COc1ccccc1CSc1ncc(-c2ccc([N+](=O)[O-])cc2)[nH]1`, the “hERG current change (%, negative = inhibition) at 1uM” value worked out at 1.99%.
Turning to `COc1ccc(C(=O)CC(=O)C(=O)Nc2ccc(C)cc2Cl)cc1`, the “hERG current change (%, negative = inhibition) at 1uM” value was 5.39%.
Under `COc1cc(CNC(C)C23CC4CC(CC(C4)C2)C3)cc(OC)c1OC.Cl` (centres unmarked) stands 11.5%.
On to `Cc1ccc(C)c2c1c1ccccc1n2C`, for which the “hERG current change (%, negative = inhibition) at 1uM” value amounted to 7.34%.
The same measure for `CN(C)CCNc1nc2sc3c(c2c(=O)n1-c1ccc(F)cc1)CCCCC3`: 6.73%; for `Cc1cc(=O)oc2c(C)c(OCC(=O)c3ccccc3)ccc12`: 13.6%; for `COc1ccc(C2c3c(noc3C)CC(C)(O)C2C(C)=O)cc1` (centres unmarked): 9.47%.
The same measure for `CC(C)(C)c1csc(NC(=O)CS(=O)(=O)c2ccccc2)n1`: 2.92%; for `CC(C)=N/N=c1\scc(C)n1Cc1ccco1`: 7.34%.
Regarding `Cn1c(CN(O)S(=O)(=O)c2ccc(Cl)cc2)nnc1C(F)(F)F`, the “hERG current change (%, negative = inhibition) at 1uM” value is on record as 14.3%.
The same measure for `O=C(CNCc1ccccn1)Nc1cc(S(=O)(=O)N2CCCCC2)ccc1Cl`: 11.3%.
Turning to `Cc1onc(-c2c(F)cccc2Cl)c1C(=O)NCc1ccco1`, the “hERG current change (%, negative = inhibition) at 1uM” value is on record as 5.18%.
Under `Cl.O=C(c1ccccc1)C(CN1CCCC1)c1ccccc1` (centres unmarked) stands 11.6%; under `C=CCSc1nc(C)cc(/C=C\c2ccccc2)c1C#N`, -16.7%; under `CCOC(=O)c1cncn1C(C)c1ccccc1` (centres unmarked), 11.9%.
The same measure for `Cc1ncc(N=Nc2ccc(F)cc2)c(-c2ccc(Cl)cc2)n1`: 10.8%; for `COC(=O)C1=C(N)Oc2cc(C)n(Cc3cccnc3)c(=O)c2C1c1ccc(OC)c(OC)c1OC` (centres unmarked): 5.08%; for `CC1CCCCC1NC(=O)COc1ncnc2sccc12` (centres unmarked): 5.19%.
The same measure for `COc1cc(/C=N/NC(=O)c2cccnc2)ccc1OCC(=O)Nc1ccc(C)cc1`: 8.89%.
